In PubChem BioAssay AID686971 (National Center for Advancing Translational Sciences (NCATS), 2013):
Where “and” joins values, the source holds several entries; their conditions need not be identical. Identical values can stand only once. Screen size: about 360,000 compounds; about 7,500 (2.1%) were called active. Inconclusive means that the source gave no clear call. Such entries were picked first, then a sample of the others. Calls follow the shape of the dose curve; as a rule, active = well fitted cell-killing curve with a large enough effect; inconclusive = small, poorly fitted or top-dose-only effect, or effect the other way, or another doubt; inactive = no such curve, though single readings can be large or run the other way. Where the call is inconclusive, the potency comes from a doubtful curve fit. Where a structure was tested more than once in an assay, its records may differ in their call.

Experiment: qHTS for induction of synthetic lethality in tumor cells producing 2HG: qHTS for the HT-1080-IDH1KD cell line;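 as to activity, negative = toxicity: 0% = DMSO wells and -100% = cell-free medium wells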
Conditions: HT-1080 IDH1 knockdown viability, ATP luminescence, 48 h; activity, negative = toxicity: at 46.1 µM (top of the series) unless noted
Summary of the method: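 Cytotoxicity counter-line: IDH1KD HT-1080, 48 h, CellTiter-Glo. Curves classed by r2, magnitude and activity.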
Potency is read from the fitted curve at half-maximal effect; tags tell the direction and shape of the fitted curve.

Row | SMILES | Potency | activity, negative = toxicity
1 | O=C(c1nc2ccc(Cl)cn2c1CN1CCC[C@H]1CO)N1CCCCCCC1 | inactive | 
2 | COc1cccc(Cn2c(Oc3cccc(C)c3)nc3c2c(=O)n(C)c(=O)n3C)c1 | inconclusive: 16.4 µM [cytotoxic, partial curve] | 
3 | CC1CN(CCS(=O)(=O)c2cc(Cl)ccc2Cl)CC(C)O1 (configuration not stated) | inconclusive: 29.1 µM [cytotoxic, single point] | 
4 | Cc1ccc(NC(c2ccccc2)c2nc3ccccc3[nH]c2=O)cc1 (configuration not stated) | inactive | 
5 | COc1cccc(/C=N/Nc2nc(Nc3ccc([N+](=O)[O-])cc3)nc(N3CCCC3)n2)c1O | active: 3.26 µM | 
6 | CCC(NC(=O)Nc1nnc(C(F)(F)F)s1)(C(F)(F)F)C(F)(F)F | active: 3.66 µM | 
7 | CC(C)C[C@@H](CN1CCC[C@H]1CN1C(=O)C(=O)NC[C@@H]1Cc1ccccc1)N1C[C@H](Cc2ccc(O)cc2)N(CCc2ccccc2)C(=O)C1=O | inconclusive: 29.1 µM [cytotoxic, single point] | 
8 | c1ccc(CSc2nnnn2-c2ccccc2)cc1 | inconclusive: 20 µM [rising, single point] | 
9 | COc1ccc(N2CCN(C(=O)c3c(-c4c(F)cccc4Cl)noc3C)CC2)cc1 | inactive | 
10 | Nc1nc(N)nc(-c2ccccn2)n1 | inconclusive: 32.6 µM [rising, single point] | 
11 | Cc1ccc(NC(=S)N/C(=N/S(=O)(=O)c2ccccc2)c2ccccc2)cc1 | inconclusive: 20.6 µM [cytotoxic, single point] | 
12 | CC(=O)Nc1nc(CCN2C(=O)c3ccccc3C2=O)cs1 | inconclusive: 4.61 µM [rising, full curve] | 
13 | COC(=O)C1CCN(C(=O)Cc2c(OC)ccc3cc(Br)ccc23)CC1 | inactive | 
14 | Fc1ccccc1-c1nc(NCc2ccccc2)c2ccccc2n1 | inactive | 
15 | CCN(CC(=O)Nc1cccc(OC)c1)CC(=O)Nc1ccc(Br)c(C)c1 | inconclusive: 23.1 µM [cytotoxic, single point] | 
16 | O=C1CC(=C(c2ccccc2)c2ccccc2)C(=O)N1CCCCN1CCN(c2ccccc2)CC1 | active: 16.4 µM | 
17 | O=C(c1ccco1)N1CCN(c2ncnc3sc4c(c23)CCC4)CC1 | inconclusive: 10 µM [cytotoxic, partial curve] | 
18 | Cc1ccc(C(=O)Cn2ncsc2=N)cc1 | inconclusive: 14.1 µM [rising, single point] | 
19 | Nc1nc(=S)c2[nH]cnc2[nH]1 | active: 1.3 µM | 
20 | O=C(Nc1ccc(N2CCN(C(=O)c3cccs3)CC2)cc1)c1cccc(F)c1 | inconclusive: 14.6 µM [cytotoxic, partial curve] | 
21 | O=C(NC1CCCCC1)c1cc(C2CC2)nn1-c1ccccc1 | inactive | 
22 | C=CCNc1nc(-c2ccccn2)nnc1-c1ccccc1 | inconclusive: 29.1 µM [cytotoxic, single point] | 
23 | CCn1cc(CN2CCC(C(=O)Nc3cccc(-c4cccc(Cl)c4)c3)CC2)c(C)n1 | active: 20.6 µM | 
24 | Nc1ccccc1Nc1cc(-c2ccccc2)nn1-c1cccc(Cl)c1 | inconclusive: 29.1 µM [cytotoxic, single point] | 
25 | O=C(COc1ccccc1)OCC(=O)c1ccc(S(=O)(=O)N2CCCCC2)cc1 | inactive | 
26 | COc1ccc(CCCNC(=O)C2Cc3c(-c4ccc5c(c4)OCO5)ccnc3O2)cc1 (configuration not stated) | active: 5.8 µM | 

Row | SMILES | Potency | activity, negative = toxicity
27 | CCOc1ccc(Nc2nc(-c3sc(N)nc3C)cs2)cc1 | inconclusive: 16.4 µM [cytotoxic, single point] | 
28 | N#Cc1c(NC(=O)/C=C/c2ccco2)sc2c1CCCC2 | inconclusive: 0.411 µM [cytotoxic, full curve] | 
29 | CN1/C(=C\C(=O)c2ccco2)C(C)(C)c2ccccc21 | active: 10 µM | 
30 | CCOc1cc(NS(=O)(=O)c2ccc(NC(C)=O)cc2)c(OCC)cc1NC(=O)c1cccs1 | inactive | 
31 | Cc1[nH]c2ccccc2c1C(O)CN1CCC2(CC1)OCCO2 (configuration not stated) | inactive | 
32 | CN(Cc1ccccc1)C(=S)Nc1ccc(OC(F)F)cc1 | inactive | 
33 | Cc1cc(NC(=O)Cc2csc(-c3ccccc3)n2)ccc1Br | inactive | 
34 | COc1ccc(OC)c2c(C)cc(N3CCCN(C)CC3)nc12 |  | inconclusive: -30.3% [cytotoxic]
35 | COc1ccc(C(=O)Nc2cccc(/C=C/c3nc4ccccc4c(=O)[nH]3)c2)cc1 |  | inconclusive: -10.8% [cytotoxic]
36 | COc1ccc(C(=O)c2[nH]c(N)c(C(=O)NCCc3c[nH]c4ccccc34)c2-c2ccc(C(F)(F)F)cc2)cc1 | inactive | 
37 | COc1ccc(NC(=O)NN(C(=O)c2ccccc2)C(C)(C)C)cc1 | inactive | 
38 | COC(=O)/C(=C\c1cc(OC)c(OC)c(OC)c1)c1nc2ccccc2[nH]1 | inconclusive: 18.4 µM [cytotoxic, partial curve] | 
39 | CCOC(=O)c1c(N)sc(C(=O)Nc2ccc3c(c2)OCO3)c1C | inconclusive: 16.4 µM [cytotoxic, single point] | 
40 | Clc1ccc(-c2nc3ccncc3[nH]2)cc1 | inconclusive: 20.6 µM [cytotoxic, single point] | 
41 | c1ccc(CNc2nc(NCc3ccccc3)c3ccccc3n2)cc1 | active: 7.31 µM | 
42 | O=C(NNC(=S)NC(=O)C12CC3CC(CC(C3)C1)C2)c1ccncc1 | active: 7.94 µM | 
43 | COc1cc(C(=O)NC(=S)NC(C)C)cc(OC)c1OC | inactive | 
44 | O=C(Nc1ccc(C(F)(F)F)cc1)C1CCCN1S(=O)(=O)c1cccc2cccnc12 (configuration not stated) | inconclusive: 12.6 µM [cytotoxic, single point] | 
45 | O=C(NC(=O)c1ccccc1)OCCN1C(=O)c2ccccc2C1=O | inconclusive: 29.1 µM [rising, single point] | 
46 | Cc1[nH]n(-c2ccccc2)c(=O)c1C=Nc1ccc(S(=O)(=O)NC(N)=O)cc1 | inactive | 
47 | CCOCCCNCc1ccc(OCc2ccccc2Cl)cc1 | inconclusive: 20.6 µM [cytotoxic, partial curve] | 
48 | CN(Cc1ccccc1)C(=O)CSc1n[nH]c(N)n1 | inactive | 
49 | C#CCN1Cc2ccccc2Oc2cc(Br)ccc2S1(=O)=O | inactive | 
50 | COc1ccc(NS(=O)(=O)c2ccc3nc(COc4ccc5ccccc5c4)[nH]c3c2)cc1 | inconclusive: 29.1 µM [cytotoxic, single point] | 
51 | Cc1cc(C)n(-c2nnc(C)n2/N=C/c2cc(Br)ccc2OCc2ccccc2)n1 | inconclusive: 29.1 µM [cytotoxic, single point] | 
52 | COc1ccc(Oc2nnc(-c3ccccc3)cc2C#N)cc1 | inconclusive: 18.4 µM [cytotoxic, partial curve] | 

Row | SMILES | Potency | activity, negative = toxicity
53 | CCCCCNC(=O)c1cc(S(=O)(=O)N2CCCCC2)ccc1F | inactive | 
54 | O=C(c1ccc(COc2ccccc2Cl)o1)N1CCN(Cc2ccc3c(c2)OCO3)CC1 | inactive and inconclusive: 23.1 µM [cytotoxic, single point] | 
55 | CCN1CCN(C(=S)Nc2cccc(Cl)c2)CC1 | inactive | 
56 | CC1(C(=O)O)CCN1C(=O)c1ccccc1F (configuration not stated) | inactive | 
57 | CCCc1nc2c(C)cc(Br)cn2c1Cc1ccc(OC)cc1C | inconclusive: 16.4 µM [cytotoxic, single point] | 
58 | O=C(N/N=C/c1ccc(F)cc1)c1cccc(NC(=O)c2ccc(F)cc2)c1 | inconclusive: 9.2 µM [cytotoxic, partial curve] | 
59 | CC(C)[C@H](NC(=O)c1c(F)cccc1F)C(=O)N1CCN(c2ccc(F)cc2)CC1 | inactive | 
60 | O=C(N/N=C\c1c(O)ccc2ccccc12)c1cncc(Br)c1 | active: 1.03 µM | 
61 | Cc1cc(Cn2nc(C(=O)NCc3cccc(C(F)(F)F)c3)cc2-c2ccccc2)on1 | inactive | 
62 | CCCNC(=O)C1(C)CCN(Cc2ccc(Oc3ccccc3)cc2)C1 (configuration not stated) | inconclusive: 10.3 µM [cytotoxic, partial curve] | 
63 | CCOc1ccc(OCC(O)CNC2CCN(Cc3ccccc3)CC2)cc1 (configuration not stated) | inconclusive: 20.6 µM [cytotoxic, partial curve] | 
64 | CCOc1cccc(C(=O)Nc2ccncc2)c1 | inactive | 
65 | CC(=O)Nc1ccc(NC(=O)c2csc([C@H]3C[C@H](O)[C@@H](CO)O3)n2)cc1 | inconclusive: 23.1 µM [rising, single point] | 
66 | CCOC(=O)c1c(NC(=O)COC(=O)c2ccc(O)cc2)sc(C(=O)NC)c1C | inactive | 
67 | Cc1cc(C)cc(NC(=O)COC(=O)c2n[nH]c3ccccc23)c1 | inconclusive: 29.1 µM [cytotoxic, single point] | 
68 | COc1ccc(OCc2cc(/C=N\NC(=O)c3ccccc3)ccc2OC)cc1 | active: 9.2 µM | 
69 | Clc1ccccc1NN=Cc1ccccn1 | inconclusive: 20.6 µM [cytotoxic, single point] | 
70 | CN1CCN(CCCN2c3ccccc3Sc3ccc(Cl)cc32)CC1 | inactive and active: 20.6 µM | 
71 | CC(NCC(O)COc1ccc(Br)cc1)c1ccccc1 (configuration not stated) | inconclusive: 29.1 µM [cytotoxic, single point] | 
72 | O=S1(=O)[C@H]2C[C@@H]3C=C[C@]2(CN1Cc1ccc(C(F)(F)F)cc1)O3 | inactive | 
73 | CC(=O)N1N=C(c2ccccc2)OC1c1ccc([N+](=O)[O-])s1 (configuration not stated) | inconclusive: 16.4 µM [cytotoxic, single point] | 
74 | COc1cccc(C(=O)NN2c3ccccc3CCc3ccccc32)c1 | inconclusive: 18.4 µM [cytotoxic, single point] | 
75 | O=C(Nc1ccc(S(=O)(=O)Nc2ccccc2F)cc1)N1CCCCC1 | inactive | 
76 | CCCCOCP(=O)(CCCC)COCCCC | inactive | 
77 | CCCn1c2c(c(=N)c3c1CCC3)CCC2 | inconclusive: 2.31 µM [cytotoxic, partial curve, poor fit] | 
